Data reported in patent US20260083687A1, “COMPOUNDS FOR REDUCING LACTATION AND IMPROVING HEALTH” (AHV International B.V., priority 2022, published 2026).
Values joined by “and” are separate entries in the source; they are usually repeats but may differ in a detail not shown here. Identical values can stand only once. The name of at least one read-out is uncertain. Marks after values point to notes of the source that are not given here.

Tested on: cows (Holstein Friesians)
Test: Treatment with DPD analogs (organosulfur compounds) and milk yield (Example 8)
Format: in vivo, cow
Details: for % reduction after 24 h average (milk yield): 24 h after one oral gel capsule; for % reduction after 24 h average (milk yield) / % reduction after 48 h average (milk yield) / % reduction after 72 h average (milk yield) / % reduction after 96 h average (milk yield) / average reduction after 24, 48 and 72 h (%) (milk yield) / Average reduction after 24 and 48 h (%) (milk yield): dose equimolar to 80 ml di-n-propyl disulfide; for % reduction after 24 h average (milk yield) / % reduction after 48 h average (milk yield) / % reduction after 72 h average (milk yield) / % reduction after 96 h average (milk yield): negative value = increase in yield; for % reduction after 48 h average (milk yield): 48 h after one oral gel capsule; for % reduction after 72 h average (milk yield): 72 h after one oral gel capsule; for % reduction after 96 h average (milk yield): 96 h after one oral gel capsule; for average reduction after 24, 48 and 72 h (%) (milk yield): average of 24, 48 and 72 h after one oral gel capsule; for Average reduction after 24 and 48 h (%) (milk yield): average of 24 and 48 h after one oral gel capsule; for Average reduction after 24 and 48 h (%) / average reduction after 24, 48 and 72 h (%) / % reduction after 24 h / % reduction after 48 h / % reduction after 72 h / % reduction after 96 h / Milk yield (kg) After 24 h / Milk yield (kg) After 48 h / Milk yield (kg) After 72 h / Milk yield (kg) After 96 h: individual cows, dose per compound as listed in E284; for % reduction after 24 h / % reduction after 48 h / % reduction after 72 h / % reduction after 96 h: vs milk yield before treatment
Protocol: Study design. 36 cows (Holstein Friesians) from 2 farms were used. The feed of the cows was composed of TMR, including corn and grass silage, supplemented with soya and minerals. […] The cows were milked in a milk robot. […] The cows were milked twice a day. The cows were housed in free stables. […] Placebo treatment corresponded to administration of two gel capsules containing 180 ml water.
For this study dosages synthetic compounds (>96% purity) as indicated in table 17 were administered to cows. The objective of this study was to compare the activity of a corresponding dose of the compounds expressed in mol, based on the number of moles that is present in 80 ml di-n-propyl disulfide at 20° C. The number of moles was converted to ml or grams of the tested compounds. For this purpose, the molecular weight and specific density were used in the calculations. The compounds were formulated in the gel capsules as indicated in the previous examples.
Before the various dosages were administered, the milk yields were monitored for at least 5 days.

Row | SMILES | % reduction after 24 h average (milk yield) [%] | % reduction after 48 h average (milk yield) [%] | % reduction after 72 h average (milk yield) [%] | % reduction after 96 h average (milk yield) [%] | average reduction after 24, 48 and 72 h (%) (milk yield) | Average reduction after 24 and 48 h (%) (milk yield) | Average reduction after 24 and 48 h (%) | average reduction after 24, 48 and 72 h (%) | % reduction after 24 h | % reduction after 48 h | % reduction after 72 h | % reduction after 96 h | Milk yield (kg) After 24 h | Milk yield (kg) After 48 h | Milk yield (kg) After 72 h | Milk yield (kg) After 96 h
1 | CCCSSCCC [DPD, di-n-propyl disulfide] | 52 | 58 | 11.3 | 0 | 40.3 | 55 | 55% | 40.3% | 52% | 58% | 11.3% | 0% |  |  |  | 
2 | CCCCSSCCCC [Di-n-butyl disulfide, di-n-butyl-disulfide] | 25 | 24 | 13 | 3.5 | 21 | 24 | 24% | 19% and 22% | 18% and 31% | 30% and 17% | 9% and 17% | 7% and 0% | 24.3 kg and 23.3 kg | 20.9 kg and 28.1 kg | 27 kg and 28.1 kg | 27.7 kg and 33.9 kg
3 | CCCCSCCCC [Di-n-butyl sulfide, di-n-butyl sulfide] | 26 | 40 | 30 | 21 | 31 | 65 | 19% and 46% | 19.3% and 43.7% | 10% and 41% | 28% and 51% | 20% and 39% | 16% and 25% | 14.7 kg and 14.1 kg | 11.8 kg and 11.7 kg | 13.1 kg and 14.6 kg | 13.7 kg and 17.8 kg
4 | CCCSCCC [Di-n-propyl sulfide, di-n-propyl sulfide] | 12 | 4 | 2 | −8 | 6 | 8 | 15% and 1% and 14.5% and 1.5% | 9.3% and 1.7% and 12% and 1% | 18% and 14% and 13% and 3% | 12% and −13% and 16% and 0% | −2* % and 3% and 6% and 0% | −27% and −4% and 2% and 1.5% | 14.1 kg and 13.4 kg and 14.8 kg and 26.1 kg | 15.1 kg and 17.7 kg and 14.3 kg and 27 kg | 17.5 kg and 15.2 kg and 15.9 kg and 27.1 kg | 21.8 kg and 16.2 kg and 16.7 kg and 26.6 kg
5 | CCCS(=O)(=O)CCC [Di-n-propyl sulfone, di-n-propyl sulfone] | 15 | 15 | 6 | −15 | 12 | 15 | 15% | 12% | 15% | 15% | 6% | −15% |  |  |  | 
6 | CCCSSSCCC [Di-n-propyl trisulfide, di-n-propyl trisulfide] | 7 | 11 | 1 | −34 | 6.2 | 9 | 6% and 12% | 2.6% and 9.7% | 8% and 6% | 4% and 17% | −4% and 5% | −43% and −25% | 16.4 kg and 15.9 kg | 17.2 kg and 14.1 kg | 18.6 kg and 16.4 kg | 25.6 kg and 21.3 kg
7 | c1ccc(CSCc2ccccc2)cc1 [Dibenzyl sulfide, di-benzyl sulfide] | 42 | 39 | 10.4 | 3.0 | 30.5 | 40.5 | 41% and 40% | 29.5% and 31.5% | 43% and 41% | 39% | 7% and 13.8% | 0% and 6% | 14.7 kg and 16.5 kg | 15.8 kg and 17.2 kg | 23.8 kg and 24.4 kg | 25.7 kg and 26.5 kg
8 | CC(C)SSC(C)C [Diisopropyl disulfide, di-isopropyl disulfide] | 32 | 13 | 7 | 3 | 11.8 | 14.2 | 14.2% | 11.8% | 32% | 13% | 7% | 3% |  |  |  | 
9 | CC(C)SC(C)C [Diisopropyl sulfide, di-isopropyl sulfide] | 12 | 4.5 | 6 | −4 | 6 | 5 | −3% and 13.5% | −0.3% and 12.3% | −6% and 18% | 0% and 9% | 2% and 10% | 0% and −9.5% | 26.3 kg and 24 kg | 24.6 kg and 26.7 kg | 24.3 kg and 26.4 kg | 24.7 kg and 32.0 kg
10 | c1ccc(Sc2ccccc2)cc1 [Diphenyl sulfide, di-phenyl sulfide] | 4 | 21 | 10 | 13 | 21 | 18 | 17.5% and 7% | 30.3% and 12.3% | 5% and 3% | 30% and 11% | −4% and 23% | 7% and 18% | 17.4 kg and 18.2 kg | 13.0 kg and 16.2 kg | 19.3 kg and 14.4 kg | 17.3 kg and 15.0 kg
